{
  "source": "patent US20240317663A1",
  "about": "“VITAMIN D3-LIKE COMPOUND” (KANAGAWA UNIVERSITY, priority 2021, published 2024)",
  "molecular_target": "VDR ligand binding domain tagged with GST (VDR-LBD(GST)) (Homo sapiens (Human), UniProt P11473)",
  "assay": "Time-resolved fluorescence resonance energy transfer (TR-FRET) vitamin D receptor (VDR) coactivator assay",
  "data": [
    {"smiles": "C[C@H]1/C(=C/C=C2C[C@@H](O)C[C@H](O)C2)CCC[C@@H]1c1ccc(OCC(C)(C)O)cc1", "note": "[VII]", "values": [
      {"measurement": "EC50", "value": "> 5", "unit": "µM"}
    ]},
    {"smiles": "C[C@H]1/C(=C/C=C2C[C@@H](O)C[C@H](O)C2)CCC[C@@H]1c1ccc(O)cc1", "note": "[VIII]", "values": [
      {"measurement": "EC50", "value": "> 5", "unit": "µM"}
    ]}
  ]
}
